Where “and” joins values, the source holds several entries; their conditions need not be identical. Identical values can stand only once. The campaign covered roughly 48,000 compounds. About 1,200 (2.5%) were called active. Another 2% or so got no clear call; they are omitted.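 Rule for the calls: active = activation of at least 60% and not above a set upper limit (about 1 call in 100 departs from these limits); inconclusive = activation of 40% to 60%, or above that upper limit; inactive = activation under 40%.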 This is one part of the list.

UniProt O75388, sequence (O75388 whole entry, looked up, the tested form may be a part): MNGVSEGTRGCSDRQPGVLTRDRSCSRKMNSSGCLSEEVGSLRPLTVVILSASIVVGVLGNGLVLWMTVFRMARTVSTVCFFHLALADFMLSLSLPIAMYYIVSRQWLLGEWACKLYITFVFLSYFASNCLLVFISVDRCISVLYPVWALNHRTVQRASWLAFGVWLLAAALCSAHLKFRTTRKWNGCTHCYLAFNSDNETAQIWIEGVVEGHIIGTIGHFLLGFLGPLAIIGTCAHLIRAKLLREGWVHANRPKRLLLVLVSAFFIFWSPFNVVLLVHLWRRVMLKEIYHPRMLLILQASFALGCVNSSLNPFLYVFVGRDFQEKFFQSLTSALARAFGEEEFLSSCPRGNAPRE

This assay has as its target Probable G-protein coupled receptor 32 (Homo sapiens) (UniProt O75388). Briefly: qHTS for Agonists of Human Resolvin D1 Receptor DRV1. Note: 0% is about no effect. To be noted: CHO-K1 GPR32 beta-arrestin PathHunter luminescence, 90 min; at 76.9 µM; active compounds read high; zero percent set by DMSO-only wells. An outline of the steps:
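Agonism was scored as beta-arrestin recruitment to ProLink-fused GPR32 in stably transfected CHO-K1 cells, giving a chemiluminescent beta-Gal signal; compounds were incubated 90 min at 37 °C.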
Consider `O=C1OC2(c3ccccc31)c1cc(I)c(O)c(I)c1Oc1c2cc(I)c(O)c1I`, for which the activation is inactive: -63.6%. As for `CCC(Oc1ccccc1)C(=O)Nc1cc(-c2ccccc2OC)nn1-c1ccccc1` (stereo not drawn), the figure is inactive: 19%. As for `CCCCN(C)C(=O)C1CCC(CNS(=O)(=O)c2ccc(Cl)cc2)CC1` (stereo not drawn), the figure is inactive: -2.25%; as for `Cc1ccc(-c2nc3c(c(SCC(=O)Nc4ccccc4Cl)n2)Cc2c(CO)cnc(C)c2O3)cc1`, inactive: 4.94%; as for `CCOC(=O)c1c(S(=O)(=O)NCC(=O)NCc2cccc(C)c2)c(C)n(C)c1C`, inactive: -27.4%. Next, `CC(=O)Nc1ccc(NC(=O)c2oc3ccc4c(c3c2C)C(=O)CC(C)(C)O4)cc1`: inactive: 20.1%; `O=C(NCCc1ccccc1)c1ccc2c(c1)N(Cc1ccccc1F)C(=O)c1ccccc1S2=O` (stereo not drawn): inactive: -19.5%; `O=c1c(N2CCc3ccccc3C2)csc2ccccc12`: inactive: -36.3%. `CNC(=O)C1CCC(Cn2c(=O)c3sccc3n(CC(=O)NCc3ccc(F)cc3)c2=O)CC1` (stereo not drawn): the activation is inactive: 0.228%. As for `O=C(C1CCCN(S(=O)(=O)c2ccc(Br)s2)C1)N1CCN(c2ccccc2)CC1` (stereo not drawn), the figure is inactive: 15.6%; as for `CCOc1ccc(-c2nc3c(c(SCC(=O)N4CCCCC4)n2)Cc2ccccc2O3)cc1`, inactive: 7.19%. As for `Cc1ccc(-c2ccc(=O)n(CC(=O)Nc3cccc(C#N)c3)n2)cc1`, the figure is inactive: 12.5%. With `C=Cc1ccc(Cn2c(C(=O)O)c(CNCc3ccccc3)c3ccc(C)cc32)cc1`, the activation was inactive: 9.5%. As for `CC1=C(C(=O)Nc2cccnc2)C(c2ccccc2)n2nc(-c3ccc(O)cc3)nc2N1` (stereo not drawn), the figure is inactive: -13.1%; as for `Cc1ccc(C2CCN(C(=O)c3cnn(-c4ccc(C)cc4)c3C3CCN(C(=O)OC(C)(C)C)CC3)C2)cc1` (stereo not drawn), inactive: -23.2%. Next, `COc1ccc(NC(=O)c2ccc3c(=O)n4nc(Nc5cccc(Cl)c5C)sc4nc3c2)cc1`: inactive: 6.27%; `CC(=O)N1CCCc2cc(S(=O)(=O)N3CCCC(C(=O)Nc4cc(Cl)ccc4C)C3)ccc21` (stereo not drawn): inactive: -8.92%; `Cc1ccc(-c2csc(=Nc3ccc(F)cc3)n2Cc2ccc3c(c2)OCO3)cc1C`: inactive: -5.69%. Next, `CCCCCCCCCCCCCCCCN`: inactive: 3.75%; `CCOc1ccccc1NS(=O)(=O)c1ccc(-c2cnc(C3CC3)o2)cc1`: inactive: -6.6%. On to `Cc1c(Cl)cccc1NC(=O)c1ncn(-c2ccccc2)n1`, for which the activation is inactive: -2.26%. As for `COc1cccc(NC(=O)CC(C)S(=O)(=O)c2ccc3c(c2)NC(=O)CO3)c1` (stereo not drawn), the figure is inactive: 1.3%; as for `Cc1cc(C)cc(NS(=O)(=O)c2ccc3c(c2)CCCN3C(=O)C2CCC2)c1`, inactive: -0.582%; as for `COc1ccc(-n2ncc(C(=O)N3CCc4ccccc4C3)c2C2CCN(C(=O)OC(C)(C)C)CC2)cc1`, inactive: -11.1%. As for `CC(C(=O)O)c1ccc2c(c1)Cc1cccnc1O2` (stereo not drawn), the figure is inactive: -1.26%; as for `CCc1ccc2oc(C(=O)Nc3nonc3CC)c(C)c2c1`, inactive: 39%; as for `O=C(Nc1ccc(Br)cc1F)c1ncoc1-c1ccco1`, inactive: -4.99%. Next, `C[C@H]1COc2c(C3(N)CC3)c(F)cc3c(=O)c(C(=O)O)cn1c23`: inactive: -4.42%; `Cc1oc2ncn(C)c(=O)c2c1C(=O)NCCCN1CCCC(C)C1` (stereo not drawn): inactive: -6.81%; `COc1ccc(-c2cc(C(F)(F)F)n3nc(C(=O)NCC45CC6CC(CC(C6)C4)C5)cc3n2)cc1`: inactive: -7.76%. Turning to `O=C(COc1ccccc1)N(Cc1cccnc1)c1nc2ccc(F)cc2s1`, the activation was inactive: -23.7%. As to `CCOc1cc(-c2nc(-c3ccc(Br)cc3)no2)cc(OCC)c1OCC`, the activation was inactive: 0.03%. As for `COc1ccc(CNC(=O)CN(c2cc(C)cc(C)c2)S(=O)(=O)c2c(C)[nH]c(=O)[nH]c2=O)cc1`, the figure is inactive: -12.2%. Next, `COCCCNC(=O)c1ccc2c(=O)n(Cc3ccc(OC)cc3)c(=O)[nH]c2c1`: inactive: 42.1%; `O=C(CN1C(=O)COc2ccc(S(=O)(=O)N3CCOCC3)cc21)N1CCN(c2ccccc2)CC1`: inactive: -6.14%; `Cc1nc(-c2ccc(C)c(S(=O)(=O)N3CCC(C(=O)NCc4ccc(Cl)cc4)CC3)c2)no1`: inactive: -7.86%. As for `COc1ccc(CCNC(=O)C2CCCN(c3nc4c(C)cc(C)cc4s3)C2)cc1OC` (stereo not drawn), the figure is inactive: -6.71%; as for `CSc1ccc2c(c1)C(N1CCN(C)CC1)Cc1ccccc1S2` (stereo not drawn), inactive: 39.7% and inactive: -31.1%; as for `COc1ccc(C2=C(C)C(=O)N(Cc3ccc(C(=O)NCc4ccc(C)cc4)cc3)S2(=O)=O)cc1`, inactive: 7.28%. On to `CC(C)(C)C(=O)Oc1ccc(S(=O)(=O)Nc2ccccc2C(=O)NCC(=O)O)cc1`, for which the activation is inactive: -11.2%.

Take `Cc1cccc(CN2CCN(CC(=O)NCc3ccc(Cl)cc3)C2=O)c1`: the activation is inactive: 23.7%. Next, `Cc1ccc(S(=O)(=O)C(CNC(=O)c2ccccc2F)c2cccs2)cc1` (stereo not drawn): inactive: -7.26%.

Regarding `Cc1cccc(CSc2nc3c(c(=O)[nH]2)C(c2cccc(O)c2)CC(=O)N3)c1` (stereo not drawn), the activation is inactive: 12.2%.

Regarding `CCOC(=O)c1c(NC(=O)c2cc(C(C)C)on2)sc(C)c1C`, the activation was inactive: -3.09%. As for `CCOc1ccc(-n2c(=O)c3c4c(sc3n(CC(=O)Nc3cccc(C(F)(F)F)c3)c2=O)CCCCC4)cc1`, the figure is inactive: 4.46%; as for `COc1ccccc1NC(=O)C(Cc1ccccc1)NS(=O)(=O)c1ccc2c(c1)c(=O)n(C)c(=O)n2C` (stereo not drawn), inactive: -0.883%; as for `O=C(Nc1ccc2oc(-c3ccc4ccccc4c3)nc2c1)c1ccccc1F`, inactive: -7.17%. As for `O=C(OCC1CCCO1)c1ccc2c(c1)N(Cc1ccccc1Cl)C(=O)c1ccccc1S2(=O)=O` (stereo not drawn), the figure is inactive: -0.438%; as for `O=C(COc1ccccc1)Nc1nnc(S(=O)(=O)N2CCCC2)s1`, inactive: 6.3%.

On to `CN(Cc1ccccc1)c1ncnc2onc(-c3ccc(F)cc3)c12`, for which the activation is inactive: 34.1%. For `CCCCOc1cccc(NC(=O)CSc2nnc(C)s2)c1`, the activation was inactive: 12.6%.

As to `O=C(NCc1ccc(F)cc1)c1c(O)nc2ccccn2c1=O`, the activation was inactive: -5.13%. Next, `CCCC(=O)OCc1cnc(C)c2oc(=O)c(C(=O)Nc3ccccc3)cc12`: inactive: -9.3%; `O=C(Nc1ccccc1)c1ccc(Br)c(S(=O)(=O)N2CCCCC2)c1`: inactive: -16%; `COc1ccc(NC(=O)COc2ccc(S(=O)(=O)NC3CCCCC3)cc2)cc1OC`: inactive: 38.1%. As for `COc1ccc(OC)c(NC(=O)CSc2nc3ccccc3nc2N2CCCCC2)c1`, the figure is inactive: -20.5%; as for `COc1ccc(Br)cc1C1Sc2ccccc2NC2=C1C(=O)c1ccccc12` (stereo not drawn), inactive: -19%; as for `O=C(Nc1cccc(Cl)c1)c1cnc[nH]1`, inactive: 43.3%. In the case of `Cc1ccc2c(=O)cc(CSCC(=O)Nc3nnc(C)s3)[nH]c2c1`, the activation was inactive: -4%. As for `CC(NC(=O)CCNS(=O)(=O)c1cccc2nsnc12)c1ccccc1` (stereo not drawn), the figure is inactive: 11%.

Regarding `CCOCCCn1c(SCC(=O)Nc2ccc(C)cc2)nc2ccccc2c1=O`, the activation was inactive: -27.7%.

On to `Cc1cc(C)n(C(C)CC(=O)NCc2ccc(N(C)C)cc2)n1` (stereo not drawn), for which the activation is inactive: -2.1%. With `COC(=O)c1cc2sccc2n1Cc1nc(-c2ccc(Cl)cc2)oc1C`, the activation was inactive: 6.59%. Next, `CCc1ccccc1NC(=O)c1ccc2c(c1)N(Cc1cc(C)ccc1C)C(=O)c1ccccc1S2(=O)=O`: inactive: -3.33%; `COc1cc(Cl)c(C)cc1NC(=O)Cn1ncc2c([nH]c3ccccc32)c1=O`: inactive: -11.5%. As for `COc1cccc(C(c2c(O)cc(C)n(Cc3ccco3)c2=O)N2CCN(c3ccccc3)CC2)c1` (stereo not drawn), the figure is inactive: -16.7%.

In the case of `O=C(CSc1nccn1Cc1ccc(Cl)cc1)Nc1ccc2c(c1)OCCO2`, the activation was inactive: -7.31%. Next, `COc1ccccc1NC(=O)C1=C(C)Nc2nc(SCc3ccccc3C)nn2C1CC(C)C` (stereo not drawn): inactive: -2.82%. As to `COc1ccc(CNC(=O)C(C)n2ccc3cc(S(=O)(=O)N4CCCC4)ccc32)cc1OC` (stereo not drawn), the activation was inactive: -3.87%. On to `Cc1cc(C)c(NC(=O)C2CCN(c3nnc(C)c4c(C)n(-c5ccccc5)nc34)CC2)c(C)c1`, for which the activation is inactive: -23.6%. For the compound `COc1ccc(-n2cc(-c3ccccc3)c3c(NCCc4ccc(OC)c(OC)c4)ncnc32)cc1`, the activation was inactive: -33.7%. For the compound `CCN1CCN(c2cc3c(cc2F)c(=O)c(S(=O)(=O)c2cc(C)cc(C)c2)cn3CC)CC1`, the activation was inactive: -5.09%. `CCc1ccc(N2CCn3c2nc2c3c(=O)n(CCCc3ccccc3)c(=O)n2C)cc1`: the activation is inactive: 12.5%. Take `CCOc1ccc(-c2nonc2NC(=O)COc2ccccc2)cc1`: the activation was inactive: -0.727%. As for `CCCc1cnc2c(c1SCC(=O)Nc1cccc(C)c1C)c(=O)n(C)c(=O)n2C`, the figure is inactive: -1.2%. As for `CCOC(=O)c1ccc(NC(=O)c2c(NCc3cc(OC)c(OC)cc3OC)sc3c2CCCC3)cc1`, the figure is inactive: -15%. In the case of `CC1=C(C(=O)OCC2CCCCC2)C(c2cccc(F)c2F)CC(=O)N1` (stereo not drawn), the activation is inactive: 0.935%.

Consider `COc1ccc(NC(=O)Cn2nnc(C(=O)Nc3ccc(C)c(F)c3)c2N)cc1Cl`, for which the activation is inactive: -8.75%. Next, `Cn1c(=O)oc2cc(S(=O)(=O)N3CCCC(C(=O)N4CCN(c5cccc(Cl)c5)CC4)C3)ccc21` (stereo not drawn): inactive: 37.3%; `O=C(NCCCCc1ccccc1)c1nn(-c2ccccc2)nc1CO`: inactive: -7.72%. For the compound `Cc1ccc(-n2c(-c3ccco3)nc3c(cnn3-c3ccc(C)cc3)c2=O)cc1`, the activation is inactive: 0.371%. As for `O=C(Cc1ccccc1F)N1CCC(c2nc3c(nnn3Cc3cccc(Cl)c3)c(=O)[nH]2)CC1`, the figure is inactive: -18.9%; as for `Cc1cc(C)cc(OCCn2c(CCNC(=O)C3CCCCC3)nc3ccccc32)c1`, inactive: -19.5%.

(Values after PubChem BioAssay AID1346428 (National Center for Advancing Translational Sciences (NCATS), 2018).)
